Data taken from ChEMBL document CHEMBL4138110, “The relevance of Ki calculation for bi-substrate enzymes illustrated by kinetic evaluation of a novel lysine (K) acetyltransferase 8 inhibitor” (Eur J Med Chem, 2017).
pEC50, pIC50: −log10 of the molar value.

tested on: not listed separately; test: Antioxidant activity assessed as DPPH radical scavenging activity incubated for 15 mins; format: functional

SMILES	pEC50
Oc1ccnc2ccccc12	3.00
O=[N+]([O-])c1ccc(O)c2ccccc12	< 3.00
Nc1ccc(O)c2ccncc12	4.72
CN(C)c1ccc(O)c2ccccc12	4.74
CCC(=O)Nc1ccc(O)c2ccccc12	4.80
O=C(Cc1ccccc1)Nc1ccc(O)c2ccccc12	4.74
NC(=O)c1ccc(O)c2ccccc12	3.37
Cc1ccc(S(=O)(=O)Nc2ccc(O)c3ccccc23)cc1	4.80
CC(=O)Oc1ccc(N)c2ccccc12	< 3.00
N#Cc1ccc(N)c2ccccc12	3.00
CC(=O)Nc1ccc(O)c2ccccc12	4.85
COc1cc(O)c2ccccc2c1N	4.59
CCCCCCCCCC(=O)Nc1ccc(O)c2ccccc12	4.74
CS(=O)(=O)Nc1ccc(O)c2ccccc12	4.74
Nc1ccc(OCc2ccccc2)c2ccccc12	5.15
Nc1ccc(CO)c2ccccc12	3.00
NCc1ccc(O)c2ccccc12	3.59
COc1ccc(N)c2ccccc12	4.64
Nc1ccc(O)c2ccccc12	4.68
Nc1ccc(O)cc1 [4-AMINOPHENOL]	4.70

tested on: not listed separately; test: Stability of compound in 50 mM HEPES buffer up to 4 hrs by HPLC analysis; format: physicochemical

SMILES	Stability
Nc1ccc(O)c2ccccc12	Stable

molecular target: Histone deacetylase 3/Nuclear receptor corepressor 2 (HDAC3/NCoR2) (Homo sapiens, UniProt O15379); test: Inhibition of full length recombinant human C-terminal His-tagged HDAC3/N-terminal GST-tagged NCOR2 (395 to 489 residues) co-expressed in baculovirus infected sf9 cells using Boc-Lys(epsioln-Ac)-AMC as substrate after 90 mins by fluorescence assay
Chain of UniProt O15379 (O15379 whole entry, the tested form may be a part): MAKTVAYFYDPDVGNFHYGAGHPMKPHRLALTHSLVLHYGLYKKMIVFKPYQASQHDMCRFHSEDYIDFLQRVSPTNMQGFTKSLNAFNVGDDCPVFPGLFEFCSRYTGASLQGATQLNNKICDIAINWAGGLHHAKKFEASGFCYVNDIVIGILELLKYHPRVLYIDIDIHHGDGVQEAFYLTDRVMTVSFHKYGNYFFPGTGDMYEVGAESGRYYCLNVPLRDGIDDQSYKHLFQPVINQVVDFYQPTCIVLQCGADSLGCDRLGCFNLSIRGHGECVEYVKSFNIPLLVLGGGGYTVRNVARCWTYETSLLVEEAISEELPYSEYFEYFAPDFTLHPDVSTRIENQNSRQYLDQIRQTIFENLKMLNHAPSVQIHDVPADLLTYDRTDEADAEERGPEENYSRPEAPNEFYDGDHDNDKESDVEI
Chain of UniProt O15379 (Q9Y618 whole entry, further chain, the tested form may be a part): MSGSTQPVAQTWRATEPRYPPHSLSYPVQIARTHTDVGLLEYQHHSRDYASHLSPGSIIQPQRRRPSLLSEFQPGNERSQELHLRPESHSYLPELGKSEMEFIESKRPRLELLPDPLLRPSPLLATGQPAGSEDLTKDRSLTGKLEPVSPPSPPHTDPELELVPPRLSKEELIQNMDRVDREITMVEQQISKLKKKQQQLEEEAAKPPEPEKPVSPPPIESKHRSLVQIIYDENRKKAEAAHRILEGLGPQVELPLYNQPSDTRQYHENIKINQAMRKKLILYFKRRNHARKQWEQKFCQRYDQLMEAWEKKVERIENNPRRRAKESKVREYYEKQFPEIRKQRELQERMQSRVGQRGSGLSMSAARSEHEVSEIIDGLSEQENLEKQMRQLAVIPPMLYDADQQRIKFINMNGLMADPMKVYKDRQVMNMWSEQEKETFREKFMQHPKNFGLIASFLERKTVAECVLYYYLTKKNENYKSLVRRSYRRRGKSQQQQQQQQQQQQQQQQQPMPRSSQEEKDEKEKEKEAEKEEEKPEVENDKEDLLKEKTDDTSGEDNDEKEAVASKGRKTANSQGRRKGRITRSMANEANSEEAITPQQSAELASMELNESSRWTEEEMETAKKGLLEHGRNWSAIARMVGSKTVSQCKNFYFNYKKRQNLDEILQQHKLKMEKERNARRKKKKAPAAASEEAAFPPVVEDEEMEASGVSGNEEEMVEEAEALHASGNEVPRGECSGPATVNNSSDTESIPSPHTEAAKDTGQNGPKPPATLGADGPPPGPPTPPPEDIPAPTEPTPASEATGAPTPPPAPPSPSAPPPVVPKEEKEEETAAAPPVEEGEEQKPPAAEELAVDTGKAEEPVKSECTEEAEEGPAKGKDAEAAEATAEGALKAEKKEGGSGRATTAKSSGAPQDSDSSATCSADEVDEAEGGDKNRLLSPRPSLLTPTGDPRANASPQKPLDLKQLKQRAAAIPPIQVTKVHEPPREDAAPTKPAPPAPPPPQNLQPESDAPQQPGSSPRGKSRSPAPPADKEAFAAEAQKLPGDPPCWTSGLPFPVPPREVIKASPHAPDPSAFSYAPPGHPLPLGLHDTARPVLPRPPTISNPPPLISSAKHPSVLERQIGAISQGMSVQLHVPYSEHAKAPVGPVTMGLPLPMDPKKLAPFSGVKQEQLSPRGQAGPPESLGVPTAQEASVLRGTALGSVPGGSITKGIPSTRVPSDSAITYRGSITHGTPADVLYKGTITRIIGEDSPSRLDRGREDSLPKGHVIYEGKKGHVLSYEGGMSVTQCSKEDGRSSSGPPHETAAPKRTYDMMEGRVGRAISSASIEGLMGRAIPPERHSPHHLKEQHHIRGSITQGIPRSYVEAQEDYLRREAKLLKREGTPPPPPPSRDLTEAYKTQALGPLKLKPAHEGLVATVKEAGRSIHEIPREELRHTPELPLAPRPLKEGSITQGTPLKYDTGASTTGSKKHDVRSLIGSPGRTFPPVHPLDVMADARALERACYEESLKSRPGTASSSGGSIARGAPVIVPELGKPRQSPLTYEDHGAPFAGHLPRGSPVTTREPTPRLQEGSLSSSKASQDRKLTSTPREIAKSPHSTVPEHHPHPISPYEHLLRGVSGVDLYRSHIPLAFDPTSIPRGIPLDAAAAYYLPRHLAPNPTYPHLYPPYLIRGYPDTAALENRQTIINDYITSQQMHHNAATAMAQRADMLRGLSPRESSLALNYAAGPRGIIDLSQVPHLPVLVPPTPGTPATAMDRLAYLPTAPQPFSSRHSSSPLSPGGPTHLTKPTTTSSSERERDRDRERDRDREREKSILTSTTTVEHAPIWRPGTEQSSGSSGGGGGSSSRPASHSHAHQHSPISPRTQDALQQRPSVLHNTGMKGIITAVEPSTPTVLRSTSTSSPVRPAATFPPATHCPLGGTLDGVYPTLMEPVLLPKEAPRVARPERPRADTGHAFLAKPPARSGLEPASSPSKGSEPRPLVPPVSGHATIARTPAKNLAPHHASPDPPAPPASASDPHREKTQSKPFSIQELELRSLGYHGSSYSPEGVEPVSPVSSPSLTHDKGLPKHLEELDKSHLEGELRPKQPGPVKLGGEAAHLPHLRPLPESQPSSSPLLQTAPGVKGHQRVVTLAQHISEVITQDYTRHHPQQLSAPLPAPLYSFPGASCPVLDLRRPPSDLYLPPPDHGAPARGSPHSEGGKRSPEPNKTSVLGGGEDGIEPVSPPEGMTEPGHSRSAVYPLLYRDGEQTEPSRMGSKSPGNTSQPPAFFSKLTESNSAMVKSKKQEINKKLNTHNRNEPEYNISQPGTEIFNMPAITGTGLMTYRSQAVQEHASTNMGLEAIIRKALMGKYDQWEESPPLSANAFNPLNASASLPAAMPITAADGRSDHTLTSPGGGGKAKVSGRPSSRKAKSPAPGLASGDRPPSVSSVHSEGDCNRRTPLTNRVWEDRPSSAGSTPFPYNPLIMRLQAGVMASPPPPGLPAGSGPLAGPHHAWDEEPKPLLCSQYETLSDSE

SMILES	pIC50
Nc1ccc(O)c2ccccc12	4.05 to 4.10
